Laboratory results published in paper PMC5512577 (2016).

Molecular target: phosphodiesterase 6 delta subunit (PDE6δ), N-terminal histidine-tagged (UniProt O43924 1-150)
Assay: FP; mantGppNHp-loaded Arl; stopped-flow

UniProt O43924, sequence (O43924 whole entry, stated change not applied): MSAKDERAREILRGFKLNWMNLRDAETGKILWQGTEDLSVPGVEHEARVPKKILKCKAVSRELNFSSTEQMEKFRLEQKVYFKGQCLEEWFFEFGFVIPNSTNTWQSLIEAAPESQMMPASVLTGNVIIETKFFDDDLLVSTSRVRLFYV

B1: N-terminally truncated Arl3 ([…]), bound to GppNHp or mantGppNHp (domain or fragment)
chain: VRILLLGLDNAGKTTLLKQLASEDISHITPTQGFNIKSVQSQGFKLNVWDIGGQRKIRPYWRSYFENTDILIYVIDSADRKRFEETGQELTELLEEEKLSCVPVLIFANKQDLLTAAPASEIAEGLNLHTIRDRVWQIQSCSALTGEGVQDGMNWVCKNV
With B1 the koff was 0.92 s⁻¹.
